Assay results published in PubChem BioAssay AID588342 (National Center for Advancing Translational Sciences (NCATS), 2011).
About 25,000 (6.9%) of roughly 360,000 compounds were called active. Inconclusive results, whose numbers are uncertain, are shown with a selection of clear calls. Calls follow the shape of the dose curve; as a rule, active = well fitted inhibition curve with a large enough effect; inconclusive = small, poorly fitted or top-dose-only effect; inactive = flat fitted curve, though single readings scatter. A potency beside an inconclusive call is a rough fit, not a confirmed value.

These compounds were tested against Luciferin 4-monooxygenase (Photinus pyralis) (UniProt P08659) (assay: qHTS profiling assay for firefly luciferase inhibitor/activator using purifed enzyme and Km concentrations of substrates (counterscreen for miR-21 project)). Conditions: purified FLuc, luminescence inhibition; series mostly up to 57.5 µM.
In short: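 Purified P. pyralis luciferase (10nM final) with 10uM D-luciferin and 10uM ATP (Km levels) in 50mM Tris acetate pH 7.5, 10mM Mg acetate, 0.01% Tween-20, 0.05% BSA; qHTS 6-point titration, ~60 µM downward; luminescence read.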
Also: nearly all actives have a fitted effect of over 55% in size.
Potency is read from the fitted curve at half-maximal effect; tags tell the direction and shape of the fitted curve.

Sequence of UniProt P08659 (P08659 whole entry, looked up): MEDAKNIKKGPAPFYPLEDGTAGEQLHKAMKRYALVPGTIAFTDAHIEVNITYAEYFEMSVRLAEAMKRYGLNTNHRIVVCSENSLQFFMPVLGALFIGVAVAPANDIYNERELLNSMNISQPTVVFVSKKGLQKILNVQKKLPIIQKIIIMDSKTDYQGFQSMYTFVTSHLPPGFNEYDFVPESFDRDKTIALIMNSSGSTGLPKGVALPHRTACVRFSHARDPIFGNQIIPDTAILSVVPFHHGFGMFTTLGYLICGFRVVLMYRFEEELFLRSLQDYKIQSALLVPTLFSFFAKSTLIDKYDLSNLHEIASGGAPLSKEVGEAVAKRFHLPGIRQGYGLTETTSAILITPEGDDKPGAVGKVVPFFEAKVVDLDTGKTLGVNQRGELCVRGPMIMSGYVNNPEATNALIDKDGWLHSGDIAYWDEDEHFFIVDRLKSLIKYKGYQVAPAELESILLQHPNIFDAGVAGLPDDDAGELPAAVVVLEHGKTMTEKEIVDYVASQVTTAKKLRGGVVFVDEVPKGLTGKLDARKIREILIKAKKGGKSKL

| SMILES | Potency |
| --- | --- |
| C#CCOCCOCCOCCNc1nc(N2CCN(C(=O)CCCCCCCCCCNC(=O)[C@H](CCCN=C(N)N)n3cc(C[C@@H](C)CC)nn3)CC2)nc(N2CCN(C(=O)CCCCCCCCCCNC(=O)[C@@H]([C@H](C)CC)n3cc(CCCCCN)nn3)CC2)n1 | inconclusive: 33.8 µM [inhibitor, single point] |
| CCOC(=O)CN1C(=O)S/C(=C/c2cccc([N+](=O)[O-])c2O)C1=O | inconclusive: 26.9 µM [inhibitor, single point] |
| COc1ccc(NC(=O)Cn2nc(C)c3c(C)n(-c4ccccc4)nc3c2=O)cc1OC | inactive |
| CC(=O)Nc1cccc(C(=O)/C=C/c2ccc(Br)cc2)c1 | inconclusive: 9.53 µM [inhibitor, partial curve, poor fit] |
| CCOc1ccc(NC(=O)c2cccc(OC(=S)N3CCOCC3)c2)cc1 | inconclusive: 7.57 µM [inhibitor, partial curve, poor fit] |
| CCOc1cc(-c2cc(C(=O)O)c3c(-c4ccccc4)[nH]nc3n2)ccc1O | inconclusive: 16.9 µM [inhibitor, partial curve] |
| COc1ccc(/C(O)=C2/C(=O)C(=O)N(c3nc(C)c(C)s3)C2c2ccco2)cc1 (stereo unspecified) | inactive |
| Cc1cc(NC(=O)NC(=O)c2ccccc2F)no1 | inconclusive: 23.9 µM [inhibitor, single point] |
| O=C1NCCCC2c3cc(O)c4ccccc4c3OC12N1CCCCC1 (stereo unspecified) | inconclusive: 37.9 µM [inhibitor, partial curve, poor fit] |
| Cc1ccc(-c2noc(C3CCCN(C(=O)c4cccc(Cl)c4)C3)n2)o1 (stereo unspecified) | inconclusive: 21.3 µM [inhibitor, single point] |
| COC(=O)/C(C#N)=C/c1ccc(OC(=O)c2ccccn2)cc1 | inconclusive: 26.9 µM [inhibitor, partial curve, poor fit] |
| Cc1ccc(Oc2cc(-n3nc(C)cc3C)ncn2)cc1 | inconclusive: 30.1 µM [inhibitor, single point] |
| CCN(Cc1nc2ccccc2c(=O)[nH]1)C(=O)c1cccc(NC(=O)c2cccs2)c1 | inconclusive: 37.9 µM [inhibitor, partial curve, poor fit] |
| CCN(CC(=O)Nc1c(F)cccc1F)C(=O)C1CC1 | inactive |
| CC1CCCC(C)N1/N=C/c1cccc(Br)c1 (stereo unspecified) | inconclusive: 30.1 µM [inhibitor, partial curve, poor fit] |
| S=c1nc2ccccc2c2nc(-c3ccccc3Cl)[nH]n12 | inconclusive: 30.1 µM [inhibitor, single point] |
| Cc1ccnc(NC(=O)CSc2ccc3c(c2)OCCO3)c1 | inconclusive: 16.9 µM [inhibitor, partial curve] |
| Cc1c(CC(=O)NCCCCCC(=O)O)c(=O)oc2c(C)c3oc4c(c3cc12)CCCC4 | inconclusive: 9.53 µM [inhibitor, partial curve] |
| COc1ccc(/C=N/n2cnnc2SCc2ccccc2)cc1 | inconclusive: 23.9 µM [inhibitor, partial curve, poor fit] |
| CN(Cc1ccccc1)C(=O)c1c[nH]c2ccc(S(=O)(=O)Nc3ccccc3F)cc2c1=O | inconclusive: 6.75 µM [inhibitor, partial curve] |
| COc1ccccc1Nc1nc(N)nc(CSc2ncccn2)n1 | inconclusive: 16.9 µM [inhibitor, partial curve, poor fit] |

| SMILES | Potency |
| --- | --- |
| CNc1ccccc1-n1ccc(-c2ccccc2)n1 | inconclusive: 23.9 µM [inhibitor, partial curve] |
| Cc1c(-c2cccc(NC(=O)Cc3ccccc3)c2)nc2ncccn12 | inactive |
| O=C(CCSCc1ccccc1Cl)NCCc1ccccc1 | inconclusive: 15.1 µM [inhibitor, partial curve, poor fit] |
| COc1ccc(/C=C2/SC(=S)N(CCCC(=O)Nc3ccccc3C(=O)O)C2=O)cc1 | active: 26.9 µM |
| O=C(NCc1ccccc1)c1n[nH]nc1-c1ccccc1O | inconclusive: 23.9 µM [inhibitor, single point] |
| O=C(NC1CCCC1)c1cccc(Oc2ccccc2)c1 | inconclusive: 23.9 µM [inhibitor, single point] |
| CC1=NN(c2ccccc2)C(=O)C1N=Nc1ccc(N)cc1 (stereo unspecified) | inconclusive: 12 µM [inhibitor, partial curve] |
| CCOC(=O)C(=O)Nc1ccccc1C(=O)NCc1ccccc1 | inactive |
| CC(=O)N/N=C(\C)c1cccc(NC(=O)c2cccs2)c1 | inconclusive: 23.9 µM [inhibitor, partial curve, poor fit] |
| Fc1ccc(NCc2nc3ccccc3n2CCOc2ccccc2Cl)cc1 | inconclusive: 7.57 µM [inhibitor, partial curve] |
| O=C(CNS(=O)(=O)c1ccccc1)N1CCc2ccccc2C1 | inconclusive: 26.9 µM [inhibitor, partial curve, poor fit] |
| CSc1ncc2c(n1)-c1ccccc1N(Cc1ccccc1C)S2(=O)=O | inactive |
| Cc1cc(C)c2nc(NNC(=O)c3ccc(S(=O)(=O)N4CC(C)CC(C)C4)cc3)sc2c1 (stereo unspecified) | inconclusive: 26.9 µM [inhibitor, partial curve, poor fit] |
| COC1(C(F)(F)F)NC(=O)N(c2ccc(F)cc2)C1=O (stereo unspecified) | inactive |
| Cc1ccnc(NC(=O)c2ccc(NS(=O)(=O)/C=C/c3ccccc3)cc2)c1 | inconclusive: 21.3 µM [inhibitor, single point] |
| Cc1cc2cc(C=O)c(Cl)nc2cc1C | inconclusive: 15.1 µM [inhibitor, partial curve] |
| O=C(N/N=C/c1ccccc1F)c1ccc(COc2ccccc2Cl)o1 | inconclusive: 16.9 µM [inhibitor, partial curve, poor fit] |
| CC1(C)NC(=O)N(CC(=O)N2CCN(S(=O)(=O)c3ccccc3C(F)(F)F)CC2)C1=O | inactive |
| COc1ccc(-c2csc(=NCCO)n2-c2ccccc2)cc1 | active: 19 µM |
| NC(=O)c1ccccc1NC(=O)CCc1ccccc1 | inconclusive: 16.9 µM [inhibitor, partial curve] |
